Results taken from ChEMBL document CHEMBL1157539, “Thousands of chemical starting points for antimalarial lead identification” (Nature, 2010).
Whole data set: some 13,000 compounds, median “IFI” near 4, cut for the highest 2% near 17. This is one part of the list.

Assay: GSK_TCMDC: Inhibition Frequency Index (IFI). The number of non-kinase HTS assays where a compound showed > 50 % inhibition, expressed as a percentage of the number of such assays in which the compound was tested (-0 is zero)
Assay type: functional

SMILES | IFI
COc1cc(Cc2cnc(N)nc2N)cc(OCCCCCCN2C(=O)c3ccccc3C2=O)c1OC | 4.9%
N#Cc1cccc(Nc2nccc(NCC(O)c3cccc(C(F)(F)F)c3)n2)c1 (centres undefined) | 10.4%
O=C(Nc1ccccc1)N(Cc1ccccc1-c1cccc(CNCc2ccc3c(c2)OCO3)c1)C1CCN(Cc2ccccc2)CC1 | 8.09%
CCN1CCC(N(Cc2ccc(-c3ccc(C(F)(F)F)cc3)cc2)C(=O)Cn2c(SCc3cccc(F)c3F)cc(=O)c3ccccc32)C1 (centres undefined) | 7.14%
Cc1cc(O)c(C(C)C)cc1C1(c2cc(C(C)C)c(O)cc2C)OC(=O)c2ccccc21 | 6.47%
O=C(OCc1ccccc1)N1CCc2c([nH]c3ccccc23)C1CCC(F)(F)F (centres undefined) | 2.88%
O=C(NCCc1ccccc1)c1cc(-c2cccnc2)cnc1NCC1CC1 | 1.89%
CCCc1cc(OCCCOc2ccccc2)ccc1OCCCON1C(=N)N=C(N)NC1(C)C | 21.1%
CN(C)c1ccc(-c2csc(C(=O)NC3CCCCN(Cc4ccc(C(C)(C)C)cc4)C3)c2)cc1 (centres undefined) | 1.82%
CC(C)CCCC(C)(C)NC[C@@H](O)[C@H](Cc1ccccc1)NC(=O)c1cccc(OCC2CC2)c1 | 18.6%
CN1CCN(Cc2cccc(-c3ccc4c(Nc5ccc(Oc6ccccc6)cc5)ccnc4c3)c2)CC1 | 10.1%
COc1c(I)cc(Cc2cnc(N)nc2N)cc1I | 7.3%
Fc1ccc2[nH]c(-c3cccc(-c4ccc(CN5CCCCC5)cc4)c3)nc2c1 | 2.9%
CCC(CO)NCC(O)Cn1c2ccc(Cl)cc2c2cc(Cl)ccc21 (centres undefined) | 5.22%
Cc1c(NC(=O)COc2ccc(Cl)cc2C(=O)c2cc(F)cc(C(F)(F)F)c2)ccc2ncsc12 | 4.62%
Cc1ccc2c(O)c([N+](=O)[O-])c(O)nc2c1 | 3.03%
C[C@H](NC(=O)c1c(CN2CCC(N3CCCCC3=O)CC2)c(-c2cccs2)nc2ccccc12)C1CCCCC1 | 6.11%
Cc1cccc2nc(-c3ccc(-c4cccc(CN5CCC(C(N)=O)CC5)c4)cc3)[nH]c12 | 0.98%
O=C(NCCCCCN1CCCN(C(=O)Nc2ccc(Cl)c(C(F)(F)F)c2)CC1)C1CC1c1ccc(Cl)c(Cl)c1 (centres undefined) | 15.1%
COc1ccc(C2CCN(CCCCNC(=O)c3ccc(NC(=O)c4ccc(Cl)cc4)cc3)CC2)cc1Cl | 2.75%
COc1ccc2nccc([C@@H](O)CN3CCC(NCc4ccc5c(c4)NC(=O)CS5)CC3)c2n1 | 3.68%
Cc1cccc(C)c1CNc1ccnc2cc(C#N)ccc12 | 1.75%
N=C(N)CCN(Cc1ccccc1)c1ccc(Cl)cc1 | 2.16%

SMILES | IFI
COc1ccc(-c2cccc(NC(=O)c3ccc(C#N)cc3)c2)cc1CN1CCN(C)CC1 | 3.96%
N=C(N)NC(=O)Nc1cc(F)c(Cl)c(Cl)c1 | 1.54%
CCn1c(Sc2ccc(C#N)c([N+](=O)[O-])c2)nnc1-c1ccc(Cl)cc1 | 2.86%
CCC(CO)NCC(O)Cn1c2ccc(Br)cc2c2cc(Br)ccc21 (centres undefined) | 8.21%
CC(C)(C)c1ccc(CN2CCCCC(NC(=O)c3cc(-c4cccc(Cl)c4)cs3)C2)cc1 (centres undefined) | 1.82%
COc1ccc(CCNCCCCCCNCCCc2ccc(Cl)cc2)cc1OC | 4.23%
COc1ccc(N2CCN(CCCCNC(=O)c3ccc(NC(=O)c4ccc(Cl)cc4)cc3)CC2)c(C)c1 | 7.21%
Cc1ccc(Nc2nc(-c3ccccn3)cs2)nc1 | 13.8%
CC(C)Nc1cc(C(=O)N[C@@H](Cc2ccccc2)[C@H](O)CNC2CCOCC2)c(F)c(N2CCCCS2(=O)=O)c1 | 2.24%
COc1cc(OC)cc(-c2nn(-c3ccc([N+](=O)[O-])cc3Cl)c(=S)n2CC2CCCO2)c1 (centres undefined) | 2.68%
O=S(=O)(NCCN1CCCC1)c1ccc(-c2cccc(CNCc3ccccc3)c2)s1 | 6.09%
CCNc1cc(C(=O)N[C@@H](Cc2ccco2)[C@H](O)CNC2CCCCC2)cc(N2CCCCS2(=O)=O)c1 | 0.74%
Cc1ccc2c(NC(=O)Nc3ccc(N(C)C)cc3)cc(C)nc2c1 | 8.89%
CN1CCN=C1c1ccc(NC(=O)Nc2ccc(C3=NCCN3C)cc2)cc1 | 1.42%
CC(=O)CC(=O)N1CCN(c2ccccc2)CC1 | 0.74%
O=C(Nc1ccccc1)c1cccc(Nc2nccc(Nc3ccc(Oc4ccccc4)cc3)n2)c1 | 1.48%
N#Cc1ccc(N[C@@H](CC2CCCCC2)C(=O)NCc2cc(Cl)cc(Cl)c2)c2ccccc12 | 3.74%
Cn1ccc2c3c(N)nc(N)nc3ccc21 | 2.16%
O=C(Nc1ccc2oc(-c3ccc(Br)cc3)nc2c1)c1ccc([N+](=O)[O-])o1 | 0.72%
Cc1cc(N[C@@H](CC(C)C)C(=O)Nc2ccccc2)nc(Nc2ccccc2)n1 | 9.3%
CN(C)CC1CCCN1Cc1ccccc1-c1cnn(C)c(=O)c1Oc1cccc(C#N)c1 (centres undefined) | 0%
Cc1cc([N+](=O)[O-])ccc1NC(=O)Nc1cccc(C(F)(F)F)c1 | 7.89%
N#Cc1c(N)n(CCc2ccc(F)cc2)c2nc3ccccc3nc12 | 2.82%

SMILES | IFI
CC1CN(c2ncc(-c3ccc(CNC4Cc5ccccc5C4)cc3)cn2)CC(C)N1 (centres undefined) | 11.4%
COc1cc(Nc2nccc(N3CCC(NC(=O)C(C)c4ccc(Cl)cc4)C3)n2)cc(OC)c1OC (centres undefined) | 4.62%
O=C(CC1NC(=O)c2ccccc21)Nc1ccc(-c2cccc(-c3nc4cc(C(F)(F)F)ccc4[nH]3)c2)cc1 (centres undefined) | 5.5%
COc1cc(CCN(C)Cc2ccc(OC)c(OC)c2)ccc1NC(=O)c1cccc2c(O)c3cccc(F)c3nc12 | 4.39%
O=C(N[C@@H](Cc1ccccc1)C(=O)NC1CCCCC1)c1ccc(O)c(-c2cccc(C(F)(F)F)c2)c1 | 2.92%
COc1cc(C2CCCCC2)c(OC)cc1CC1c2cc(O)c(Cl)cc2CCN1C (centres undefined) | 5.04%
O=C(Nc1ccc(C(F)(F)F)cc1)c1ccc(S(=O)(=O)NC2CCN(CC3CCCCC3)CC2)cc1 | 2.41%
Cc1nc2ccccn2c1C1(O)C(=O)Nc2c(Cl)cc(Cl)cc21 (centres undefined) | -0%
CN(C)CCOc1cc(NC(=O)Nc2ccc(-c3ccncc3)c3ccccc23)ccc1I | 8.33%
CC(C)CNCc1ccc(-c2cccc(CNc3ccc4ncccc4c3)c2)cc1 | 8.51%
O=C(Nc1cccc(-c2ccc(-c3nc4cc(C(F)(F)F)ccc4[nH]3)cc2)c1)Nc1ccc(F)c(F)c1F | 9.8%
COc1ccc2ncc(F)c(CCN3CC[C@@H](CNCc4cc5c(cn4)OCS5)C3)c2n1 | 2.86%
CCCNCc1ccc(-c2ccc(CN(CCOC)C(=O)[C@H]3CCCO3)cc2)nc1 | 0.69%
Cc1cc(=NN=Cc2ccc(Cl)cc2)c2cc(F)ccc2[nH]1 | 0.72%
COc1ccc2nccc([C@@H](O)CNCCCN(C)CCOc3cc(F)cc(F)c3)c2c1 | 2.84%
COc1cccc(CNC[C@@H](O)[C@H](Cc2ccccc2)NC(=O)c2cc(OC(C)C)cc(N3CCCCS3(=O)=O)c2)c1 | 5.93%
Cc1cc(NC(=O)NCCN2CCC(NC(=O)c3ccc(Cl)cc3)CC2)c2ccccc2n1 | 0.85%
CSCCCN1CCC(O)(c2ccc3oc(C(=O)Nc4ccc5sc(C)nc5c4)cc3c2)CC1 | 0%
COc1ccccc1NC(=O)Nc1ccc(-c2ccc(-c3nc4cc(C(F)(F)F)ccc4[nH]3)cc2)cc1 | 3.03%
CC1CN(Cc2cccc(-c3ccc(-c4nc5ccccc5[nH]4)cc3)c2)CC(C)O1 (centres undefined) | 1.41%
COc1ccc(CN(C)CCCCc2ccc(NC(=O)COc3cccc4sc5ccccc5c(=O)c34)cc2)cc1OC | 6.67%
CCOc1cc(CC)ccc1C1CCN(CCCCNC(=O)c2ccc(NC(=O)c3ccc(Cl)cc3)cc2)CC1 | 2.21%
Cc1cc(CNC(=O)[C@H](CC2CCCCC2)Nc2ccc(C#N)c3ccccc23)c(C(F)(F)F)o1 | 2.8%

SMILES | IFI
CC(C)N1CCC(N(Cc2ccc(-c3ccc(C(F)(F)F)cc3)cc2)C(=O)Cn2c(CCc3cccc(F)c3F)nc(=O)c3cccnc32)CC1 | 16.1%
FC(F)(F)c1cccc(Nc2nc(-n3ccnc3)nc(-n3ccnc3)n2)c1 | 0.7%
O=C(Nc1ccc(OC2CCN(Cc3ccccc3)CC2)c(Cl)c1)c1ccsc1 | 1.67%
O=C(N[C@@H](Cc1ccccc1)C(=O)NC1CCCCCC1)c1ccc(O)c(-c2ccc(Cl)c(Cl)c2)c1 | 1.48%
Cc1[nH]c(C)c(-c2ccc(OCc3ccc(F)cc3)cc2)c(=O)c1Br | 0%
CCCOc1ccc(N2C(N)=NC(N)=NC2(C)C)cc1 | 1.54%
CCCC(=O)NC(NC(=S)Nc1ccc([N+](=O)[O-])cc1)C(Cl)(Cl)Cl (centres undefined) | 7.64%
OCCC1CCN(Cc2ccc(-c3ccc(-c4nc5ccccc5[nH]4)cc3)cc2)CC1 | 4.23%
O=S(=O)(NCCN1CCCC1)c1ccc(-c2cccc(CNC3Cc4ccccc4C3)c2)cc1F | 7.83%
CCS(=O)(=O)N1CCN(c2nc(-c3ccccc3)nc(COC)c2Cc2ccccc2F)CC1 | 3.45%
COc1ccc2cc(C(C)NC3CCN(c4cccc(NC(=O)c5ccncc5)c4)CC3)ccc2c1 (centres undefined) | 2.44%
CN1CCc2cc(NS(=O)(=O)c3ccc(-c4ccc(Cl)s4)cc3)c(N3CCCCC3)cc2CC1 | 5.56%
O=C(NC1CCCCCC1)C1CCCN(C(=O)c2ccc(O)c(-c3ccc(Cl)c(Cl)c3)c2)C1 (centres undefined) | 2.24%
COc1cc(OC)cc(C(=O)Nc2ccc(Nc3nc(C)cc(N(C)C)n3)cc2)c1 | 5.56%
COc1cccc(C(=O)Nc2ccc(S(=O)(=O)c3cc4c(cc3OC)CCN(C)CC4)cc2)c1 | 1.85%
N#Cc1cccc(-c2cccc(C(=O)NC3CCC(CCN4CCc5ccc(C#N)cc5CC4)CC3)c2)c1 (centres undefined) | 6.72%
Cc1cccc2nc(-c3cccc(-c4cccc(NC(=O)c5ccoc5)c4)c3)[nH]c12 | 6.19%
CC(C)(C)OC(=O)N[C@@H](CS(=O)(=O)CCNC(=N)COCc1ccccc1)C(=O)OC(C)(C)C | 0.74%
OCC1CCN(Cc2cccc(-c3ccc(-c4nc5cc(C(F)(F)F)ccc5[nH]4)cc3)c2)CC1 | 2.97%
CN(C)c1cccc2c1nc(-c1ccc3c(c1)CCO3)n2CCNCc1ccccc1 | 4.2%
